# Laboratory results published in the supplement of paper PMC8728848.
# The other results are listed elsewhere or left out.
# B1: PX14367B-bvu-516-23-516 (Bacteroides vulgatus) (protein)
# chain: LDTIPTTYVDAGSVFGKTGDAEKVLNGGWNYLMETFNSYANPGYGAMLRANDAMGSDVVLNSKYGFRTHNEFSAIYGKGGTNTLSWLLAYRVINDCNGVLDNIDAAEGTQADRNRIKGQALALRGFLYLHLASCYSFAIDKDPDAVCAPIYTQSTDETIAAEGKPASSVSEVYAQSINDLEEALELIPETYVRDAKHKIDNEVVLGILSRACLYARQWEKAKTYSDKLLAKDNYLMTESEYKAGFNSVDNKEWIWGHAQTNDQSNASYQFHYLDTTTKGSYYYSFNVDPYFRDLFEDGDYRKEMLFWATDPGADVESAAYVWMRNSKFRFRDIENQLGDIVLMRVAEIYLINAEAKAHLNDPDAINKLNDLKTARGAKTIHTNLSQQDLLETIWLERRKELWGEGFSLIDIIRNQQTVVRNAYPEGPIDYIYTDENGQTHTLKKKTQGHRFFNFPDKSAFCPNSKYYLYRITDSEELANKNLYKDHPKLSIYTK
# What was measured:
# Assay in all cases: glycan array binding signal (z-score within array); higher = stronger binding
# Conditions in all cases: glycan notation: IUPAC condensed, linker removed
# [1] = target: GlcNAc(a1-4)Gal(b1-3)GlcNAc
# Summary of the method: (§1)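 Columns mapping to the same glycan were averaged after glycan names were converted to IUPAC-condensed notation. The data come from 3228 arrays in the Consortium for Functional Glycomics database, limited to those with an available protein sequence. Binding is reported as a within-array Z-score averaged across arrays of one protein sequence and across linkers.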
# [2] = target: GlcNAc(a1-4)Gal(b1-4)GalNAc
# Summary of the method: as §1
# [3] = target: GlcNAc(a1-4)Gal(b1-4)GlcNAc
# Summary of the method: as §1
# [4] = target: GlcNAc(a1-4)Gal(b1-4)GlcNAc(b1-3)Gal(b1-4)Glc
# Summary of the method: as §1
# [5] = target: GlcNAc(a1-4)Gal(b1-4)GlcNAc(b1-3)Gal(b1-4)GlcNAc
# Summary of the method: as §1
# [6] = target: GlcNAc(a1-4)Gal(b1-4)GlcNAc(b1-3)Gal(b1-4)GlcNAc(b1-3)Gal(b1-4)GlcNAc
# Summary of the method: as §1
# [7] = target: GlcNAc(a1-4)Gal(b1-4)GlcNAc(b1-3)Gal(b1-4)[Fuc(a1-3)]GlcNAc(b1-3)Gal(b1-4)[Fuc(a1-3)]GlcNAc
# Summary of the method: as §1
# [8] = target: GlcNAc(a1-6)Gal(b1-4)GlcNAc
# Summary of the method: as §1
# [9] = target: GlcNAc(b1-2)Gal(b1-3)GalNAc
# Summary of the method: as §1
# [10] = target: GlcNAc(b1-2)Man(a1-3)[GlcNAc(b1-2)Man(a1-6)]Man(b1-4)GlcNAc(b1-4)GlcNAc
# Summary of the method: as §1
# [11] = target: GlcNAc(b1-2)Man(a1-3)[GlcNAc(b1-2)Man(a1-6)]Man(b1-4)GlcNAc(b1-4)[Fuc(a1-6)]GlcNAc
# Summary of the method: as §1
# [12] = target: GlcNAc(b1-2)Man(a1-3)[GlcNAc(b1-4)][GlcNAc(b1-2)Man(a1-6)]Man(b1-4)GlcNAc(b1-4)GlcNAc
# Summary of the method: as §1
# [13] = target: GlcNAc(b1-2)Man(a1-3)[GlcNAc(b1-4)][GlcNAc(b1-2)Man(a1-6)]Man(b1-4)GlcNAc(b1-4)[Fuc(a1-6)]GlcNAc
# Summary of the method: as §1
# [14] = target: GlcNAc(b1-2)[GlcNAc(b1-4)]Man(a1-3)[GlcNAc(b1-2)Man(a1-6)]Man(b1-4)GlcNAc(b1-4)GlcNAc
# Summary of the method: as §1
# [15] = target: GlcNAc(b1-2)[GlcNAc(b1-4)]Man(a1-3)[GlcNAc(b1-4)][GlcNAc(b1-2)Man(a1-6)]Man(b1-4)GlcNAc(b1-4)GlcNAc
# Summary of the method: as §1
# [16] = target: GlcNAc(b1-2)[GlcNAc(b1-4)]Man(a1-3)[GlcNAc(b1-4)][GlcNAc(b1-2)[GlcNAc(b1-6)]Man(a1-6)]Man(b1-4)GlcNAc(b1-4)GlcNAc
# Summary of the method: as §1
# [17] = target: GlcNAc(b1-2)[GlcNAc(b1-4)]Man(a1-3)[GlcNAc(b1-4)][GlcNAc(b1-2)[GlcNAc(b1-6)]Man(a1-6)]Man(b1-4)GlcNAc(b1-4)[Fuc(a1-6)]GlcNAc
# Summary of the method: as §1
# [18] = target: GlcNAc(b1-2)[GlcNAc(b1-6)]Man(a1-6)[GlcNAc(b1-2)Man(a1-3)]Man(b1-4)GlcNAc(b1-4)GlcNAc
# Summary of the method: as §1
# [19] = target: GlcNAc(b1-2)[GlcNAc(b1-6)]Man(a1-6)[GlcNAc(b1-2)Man(a1-3)]Man(b1-4)GlcNAc(b1-4)[Fuc(a1-6)]GlcNAc
# Summary of the method: as §1
# [20] = target: GlcNAc(b1-2)[GlcNAc(b1-6)]Man(a1-6)[GlcNAc(b1-4)][GlcNAc(b1-2)Man(a1-3)]Man(b1-4)GlcNAc(b1-4)GlcNAc
# Summary of the method: as §1
# GlcNAc(b1-3)Fuc = target: GlcNAc(b1-3)Fuc
# Summary of the method: as §1
# GlcNAc(b1-3)Gal = target: GlcNAc(b1-3)Gal
# Summary of the method: as §1
# [21] = target: GlcNAc(b1-3)Gal(b1-3)GalNAc
# Summary of the method: as §1
# GlcNAc(b1-3)Gal(b1-4)Glc = target: GlcNAc(b1-3)Gal(b1-4)Glc
# Summary of the method: as §1
# [22] = target: GlcNAc(b1-3)Gal(b1-4)GlcNAc
# Summary of the method: as §1
# [23] = target: GlcNAc(b1-3)Gal(b1-4)GlcNAc(b1-2)Man(a1-3)[GlcNAc(b1-3)Gal(b1-4)GlcNAc(b1-2)Man(a1-6)]Man(b1-4)GlcNAc(b1-4)GlcNAc
# Summary of the method: as §1
# [24] = target: GlcNAc(b1-3)Gal(b1-4)GlcNAc(b1-2)Man(a1-3)[GlcNAc(b1-3)Gal(b1-4)GlcNAc(b1-2)Man(a1-6)]Man(b1-4)GlcNAc(b1-4)[Fuc(a1-6)]GlcNAc
# Summary of the method: as §1
# [25] = target: GlcNAc(b1-3)Gal(b1-4)GlcNAc(b1-2)[GlcNAc(b1-3)Gal(b1-4)GlcNAc(b1-6)]Man(a1-6)[GlcNAc(b1-3)Gal(b1-4)GlcNAc(b1-2)Man(a1-3)]Man(b1-4)GlcNAc(b1-4)GlcNAc
# Summary of the method: as §1
# [26] = target: GlcNAc(b1-3)Gal(b1-4)GlcNAc(b1-3)Gal(b1-4)GlcNAc
# Summary of the method: as §1
# [27] = target: GlcNAc(b1-3)Gal(b1-4)GlcNAc(b1-3)Gal(b1-4)GlcNAc(b1-2)Man(a1-3)[GlcNAc(b1-3)Gal(b1-4)GlcNAc(b1-3)Gal(b1-4)GlcNAc(b1-2)Man(a1-6)]Man(b1-4)GlcNAc(b1-4)GlcNAc
# Summary of the method: as §1
# [28] = target: GlcNAc(b1-3)Gal(b1-4)GlcNAc(b1-3)Gal(b1-4)GlcNAc(b1-2)Man(a1-3)[GlcNAc(b1-3)Gal(b1-4)GlcNAc(b1-3)Gal(b1-4)GlcNAc(b1-2)Man(a1-6)]Man(b1-4)GlcNAc(b1-4)[Fuc(a1-6)]GlcNAc
# Summary of the method: as §1
# [29] = target: GlcNAc(b1-3)Gal(b1-4)GlcNAc(b1-3)Gal(b1-4)GlcNAc(b1-2)[GlcNAc(b1-3)Gal(b1-4)GlcNAc(b1-3)Gal(b1-4)GlcNAc(b1-6)]Man(a1-6)[GlcNAc(b1-3)Gal(b1-4)GlcNAc(b1-3)Gal(b1-4)GlcNAc(b1-2)Man(a1-3)]Man(b1-4)GlcNAc(b1-4)[Fuc(a1-6)]GlcNAc
# Summary of the method: as §1
# [30] = target: GlcNAc(b1-3)Gal(b1-4)GlcNAc(b1-3)Gal(b1-4)GlcNAc(b1-3)Gal(b1-4)GlcNAc(b1-2)Man(a1-3)[GlcNAc(b1-3)Gal(b1-4)GlcNAc(b1-3)Gal(b1-4)GlcNAc(b1-3)Gal(b1-4)GlcNAc(b1-2)Man(a1-6)]Man(b1-4)GlcNAc(b1-4)GlcNAc
# Summary of the method: as §1
# [31] = target: GlcNAc(b1-3)Gal(b1-4)GlcNAc(b1-3)Gal(b1-4)GlcNAc(b1-3)Gal(b1-4)GlcNAc(b1-2)Man(a1-3)[GlcNAc(b1-3)Gal(b1-4)GlcNAc(b1-3)Gal(b1-4)GlcNAc(b1-3)Gal(b1-4)GlcNAc(b1-2)Man(a1-6)]Man(b1-4)GlcNAc(b1-4)[Fuc(a1-6)]GlcNAc
# Summary of the method: as §1
# [32] = target: GlcNAc(b1-3)Gal(b1-4)GlcNAc(b1-3)Gal(b1-4)GlcNAc(b1-3)Gal(b1-4)GlcNAc(b1-2)[GlcNAc(b1-3)Gal(b1-4)GlcNAc(b1-3)Gal(b1-4)GlcNAc(b1-3)Gal(b1-4)GlcNAc(b1-6)]Man(a1-6)[GlcNAc(b1-3)Gal(b1-4)GlcNAc(b1-3)Gal(b1-4)GlcNAc(b1-3)Gal(b1-4)GlcNAc(b1-2)Man(a1-3)]Man(b1-4)GlcNAc(b1-4)[Fuc(a1-6)]GlcNAc
# Summary of the method: as §1
# [33] = target: GlcNAc(b1-3)Gal(b1-4)GlcNAc(b1-3)Gal(b1-4)GlcNAc(b1-3)Gal(b1-4)GlcNAc(b1-3)Gal(b1-4)GlcNAc(b1-2)Man(a1-3)[GlcNAc(b1-3)Gal(b1-4)GlcNAc(b1-3)Gal(b1-4)GlcNAc(b1-3)Gal(b1-4)GlcNAc(b1-3)Gal(b1-4)GlcNAc(b1-2)Man(a1-6)]Man(b1-4)GlcNAc(b1-4)GlcNAc
# Summary of the method: as §1
# [34] = target: GlcNAc(b1-3)Gal(b1-4)GlcNAc(b1-3)Gal(b1-4)GlcNAc(b1-3)Gal(b1-4)GlcNAc(b1-3)Gal(b1-4)GlcNAc(b1-2)Man(a1-3)[GlcNAc(b1-3)Gal(b1-4)GlcNAc(b1-3)Gal(b1-4)GlcNAc(b1-3)Gal(b1-4)GlcNAc(b1-3)Gal(b1-4)GlcNAc(b1-2)Man(a1-6)]Man(b1-4)GlcNAc(b1-4)[Fuc(a1-6)]GlcNAc
# Summary of the method: as §1
# [35] = target: GlcNAc(b1-3)Gal(b1-4)GlcNAc(b1-3)Gal(b1-4)GlcNAc(b1-3)Gal(b1-4)GlcNAc(b1-3)Gal(b1-4)GlcNAc(b1-2)[GlcNAc(b1-3)Gal(b1-4)GlcNAc(b1-3)Gal(b1-4)GlcNAc(b1-3)Gal(b1-4)GlcNAc(b1-3)Gal(b1-4)GlcNAc(b1-6)]Man(a1-6)[GlcNAc(b1-3)Gal(b1-4)GlcNAc(b1-3)Gal(b1-4)GlcNAc(b1-3)Gal(b1-4)GlcNAc(b1-3)Gal(b1-4)GlcNAc(b1-2)Man(a1-3)]Man(b1-4)GlcNAc(b1-4)[Fuc(a1-6)]GlcNAc
# Summary of the method: as §1
binder,measurement,setting,value
B1,glycan array binding signal (z-score),[1],-0.315
same,glycan array binding signal (z-score),[2],-0.344
same,glycan array binding signal (z-score),[3],-0.192
same,glycan array binding signal (z-score),[4],-0.119
same,glycan array binding signal (z-score),[5],-0.2
same,glycan array binding signal (z-score),[6],-0.269
same,glycan array binding signal (z-score),[7],0.017
same,glycan array binding signal (z-score),[8],-0.279
same,glycan array binding signal (z-score),[9],-0.305
same,glycan array binding signal (z-score),[10],-0.267
same,glycan array binding signal (z-score),[11],-0.22
same,glycan array binding signal (z-score),[12],-0.304
same,glycan array binding signal (z-score),[13],-0.049
same,glycan array binding signal (z-score),[14],-0.294
same,glycan array binding signal (z-score),[15],-0.334
same,glycan array binding signal (z-score),[16],-0.297
same,glycan array binding signal (z-score),[17],-0.389
same,glycan array binding signal (z-score),[18],-0.082
same,glycan array binding signal (z-score),[19],-0.326
same,glycan array binding signal (z-score),[20],-0.314
same,glycan array binding signal (z-score),GlcNAc(b1-3)Fuc,-0.382
same,glycan array binding signal (z-score),GlcNAc(b1-3)Gal,-0.302
same,glycan array binding signal (z-score),[21],-0.209
same,glycan array binding signal (z-score),GlcNAc(b1-3)Gal(b1-4)Glc,-0.323
same,glycan array binding signal (z-score),[22],-0.338
same,glycan array binding signal (z-score),[23],-0.242
same,glycan array binding signal (z-score),[24],-0.238
same,glycan array binding signal (z-score),[25],1.42
same,glycan array binding signal (z-score),[26],-0.331
same,glycan array binding signal (z-score),[27],-0.22
same,glycan array binding signal (z-score),[28],-0.169
same,glycan array binding signal (z-score),[29],0.081
same,glycan array binding signal (z-score),[30],2.37
same,glycan array binding signal (z-score),[31],0.057
same,glycan array binding signal (z-score),[32],2.54
same,glycan array binding signal (z-score),[33],-0.276
same,glycan array binding signal (z-score),[34],-0.264
same,glycan array binding signal (z-score),[35],1.67
